Measured values: the supplement of paper PMC3334620
Over roughly 33,000 sequences, “E-score (-0.5 to 0.5)” has its median near -0.032; the highest 2% begin near 0.36. The list shows a part of the results.

Molecular target: T1, Sko1 (UniProt Q02100)
T1 sequence: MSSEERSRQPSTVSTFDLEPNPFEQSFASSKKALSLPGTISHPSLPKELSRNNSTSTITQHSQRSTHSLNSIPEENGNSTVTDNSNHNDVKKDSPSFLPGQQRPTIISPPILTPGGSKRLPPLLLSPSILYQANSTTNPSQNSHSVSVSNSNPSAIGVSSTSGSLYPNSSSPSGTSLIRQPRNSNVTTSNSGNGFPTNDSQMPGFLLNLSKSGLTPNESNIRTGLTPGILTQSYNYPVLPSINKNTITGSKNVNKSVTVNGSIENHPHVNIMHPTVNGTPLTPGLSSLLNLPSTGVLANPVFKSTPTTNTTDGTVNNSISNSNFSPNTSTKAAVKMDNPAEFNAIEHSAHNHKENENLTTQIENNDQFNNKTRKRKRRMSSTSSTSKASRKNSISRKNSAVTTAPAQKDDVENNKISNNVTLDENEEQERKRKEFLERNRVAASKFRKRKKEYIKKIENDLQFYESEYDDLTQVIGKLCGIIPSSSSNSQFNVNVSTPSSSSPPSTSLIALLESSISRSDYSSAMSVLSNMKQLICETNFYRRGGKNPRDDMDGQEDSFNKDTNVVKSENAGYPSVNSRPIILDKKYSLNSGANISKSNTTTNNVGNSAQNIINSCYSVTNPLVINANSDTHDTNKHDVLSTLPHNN
Assay: PBM E-score (8-mer binding enrichment) (E-score (-0.5 to 0.5)); higher = stronger / more preferred TF binding; most listed sequences are background and not binding sites
Details: protein concentration: 200 nM; construct: GST-full length
Method in brief: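 For each ungapped eight-base word taken together with its reverse complement, the Universal PBM Analysis Suite assigned an E-score. Binding data came from GST-tagged yeast transcription factors, applied at about 100-200 nM, on universal all-10-mer Agilent arrays made double-stranded by primer extension. Fluorescent anti-GST marked bound protein, and scans were normalised with masliner.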

| Sequence | PBM E-score |
| --- | --- |
| CAATGTCC | -0.105 |
| ATCAGCCC | -0.148 |
| CCATATTC | 0.0472 |
| ACCTTCGG | -0.171 |
| ATGTAACA | 0.226 |
| AAAGGAAA | 0.0268 |
| CTCGGCGA | -0.0899 |
| GTGTTTCA | 0.0322 |
| GCTATAAC | -0.137 |
| AGGAAGGC | -0.148 |
| GCCTGAAC | -0.33 |
| CCCCACCC | 0.00496 |
| CCCTACGC | 0.102 |
| CTTCAGAA | -0.0195 |
| GGGCCACC | -0.266 |
| AAATCTAA | 0.00445 |
| AGTTTTGA | 0.0411 |
| ACTCCAAC | -0.0882 |
| ACTCTAAT | 0.0971 |
| GATCCTCC | -0.264 |
| GCAGCAAA | -0.178 |
| GGGATTGA | 0.0574 |
| CGGGGGGC | -0.2 |
| GGGCCCAA | -0.129 |
| CACGTGTC | 0.357 |

| Sequence | PBM E-score |
| --- | --- |
| GTGCCAGA | -0.141 |
| GGTATGCA | -0.0427 |
| CGGTATAC | -0.116 |
| AAGGTTGC | -0.0775 |
| ATCGATGG | 0.0422 |
| AGAGGCCT | -0.264 |
| GCCTCACC | -0.254 |
| GGCTCGAC | -0.11 |
| AGTGTAAA | 0.0531 |
| TATCTCGA | 0.139 |
| CAGTATGC | -0.0805 |
| CGCTTGGA | -0.176 |
| GGCGTGTA | 0.0253 |
| ATCGTAAA | 0.32 |
| GCAACGCA | 0.0485 |
| CTGGGTGA | -0.0411 |
| CGGTGTCC | -0.317 |
| TGCCCTAA | -0.208 |
| AAGATAAC | 0.0629 |
| ACTTTTTA | 0.168 |
| GCAGCGCC | -0.0609 |
| ACGTAGCT | 0.444 |
| GCATAAAC | 0.166 |
| ATCCTGTC | -0.0275 |
| ATAGCTCA | 0.0168 |

| Sequence | PBM E-score |
| --- | --- |
| AACATAGT | 0.115 |
| CACTAAGA | -0.0742 |
| CGGGCCAA | -0.242 |
| AGCTGATA | 0.162 |
| AAAAAGAC | 0.183 |
| TCAGACGA | -0.0213 |
| CACATCAC | 0.154 |
| AAGAGGAC | -0.238 |
| CTAAGTAC | 0.153 |
| AAGAGCGG | -0.104 |
| AGAGCAAT | -0.187 |
| TCACCCGA | 0.028 |
| CACCTTTC | -0.223 |
| ATATTTAA | 0.32 |
| GACATTGC | 0.0301 |
| ATGGTCCC | -0.196 |
| CGGTACTC | -0.165 |
| TACCATCA | -0.0837 |
| ATAATAAA | 0.303 |
| AGGGGACC | -0.268 |
| CGCTTTGA | -0.101 |
| CTAATACC | -0.0534 |
| ATTAGTTG | 0.0951 |
| GCCTACTA | -0.0173 |
| ACTAGTCC | 0.0157 |

| Sequence | PBM E-score |
| --- | --- |
| AACTCGCG | 0.178 |
| GGGTAAGA | -0.161 |
| GCGCAAGC | -0.0196 |
| ACACCAGC | -0.129 |
| ACGCTTAA | 0.0637 |
| TAGACTCA | 0.0362 |
| ACTCGGTC | -0.0986 |
| CACAGCAA | 0.173 |
| ACTGCTAT | -0.132 |
| CGACTCAA | 0.0143 |
| GTCCCCGA | -0.136 |
| CGACGTAA | 0.472 |
| ACCGGTAT | -0.214 |
| CGGTAAAC | -0.00793 |
| AAGGTGGA | -0.157 |
| AATGGCGC | -0.0228 |
| ATCCTGAA | 0.156 |
| AGACATCG | -0.148 |
| CGATTACA | 0.106 |
| ATGCCAAA | -0.0114 |
| CTTTGTTC | -0.13 |
| GGCGCCTA | -0.163 |
| AATACGGA | 0.138 |
| AACGAGAG | 0.155 |
| TAGAGCTA | -0.169 |

| Sequence | PBM E-score |
| --- | --- |
| GGTCTCAC | -0.087 |
| ATGGTACG | 0.279 |
| AGATTAAT | 0.0905 |
| CCCACGGA | -0.0825 |
| AAGGGTGT | 0.0672 |
| AATTCGTG | 0.169 |
| ATGCACAC | 0.0253 |
| CAAAGCGA | -0.141 |
| CCTTGCTC | -0.307 |
| CATGATAG | 0.0738 |
| CGAACTTC | 0.115 |
| CTAAGCGC | -0.083 |
| CAGCCTGC | -0.225 |
| AAGGACGG | -0.22 |
| ACAAGCAA | 0.0627 |
| CCGTTCCG | -0.149 |
| CGATGTAC | 0.144 |
| AGACCCAG | -0.0788 |
| GTCTACAA | -0.00077 |
| ACCCGCCA | -0.0876 |
| ACCCCAGA | -0.138 |
| AGCTGCCG | -0.147 |
| GAATAATC | 0.219 |
| CTCGGACC | -0.184 |
| CAGATTAA | 0.162 |

| Sequence | PBM E-score |
| --- | --- |
| AACCGTAA | 0.0957 |
| GTCTGAAA | 0.124 |
| AAGCCAGG | -0.0853 |
| ATCCCCGC | -0.265 |
| GATTATAC | 0.079 |
| ATAGGTGA | 0.0325 |
| CTACTCGC | -0.139 |
| CCGACCAG | -0.195 |
| TGCTGCAA | 0.093 |
| CCGGAACC | -0.301 |
| CAGAGCAA | -0.0947 |
| CTGGTGCA | -0.172 |
| CATGACTC | -0.0516 |
| TGGCGGAA | -0.102 |
| TCCCCCAA | -0.226 |
| CTGTGATC | -0.0559 |
| ACCGGAAA | -0.0601 |
| GGATTTAA | 0.0899 |
| AAATCTAT | 0.204 |
| GCCCATAC | 0.0102 |
| CTTTAATC | 0.0512 |
| GACTGTCA | -0.182 |
| CAAGGGAA | -0.134 |
| TATAGCAA | 0.0706 |
| CAGAAGTC | -0.113 |

| Sequence | PBM E-score |
| --- | --- |
| GTCTTAAA | 0.00132 |
| ACCGCGCC | -0.0509 |
| AGTGAACC | -0.156 |
| CACGAAAG | 0.0636 |
| CATACGTC | 0.466 |
| ATAATCTA | 0.189 |
| GGCGTCCC | -0.394 |
| CGCCCTAA | -0.221 |
| CAGCCAGC | -0.213 |
| ATAAGACC | -0.17 |
| ACCGGCCT | -0.0244 |
| CGCCGGAA | -0.23 |
| AACCTTGA | 0.094 |
| GACACCAA | 0.00349 |
| CTGTCCCC | -0.264 |
| CTGTCCAA | -0.0587 |
| GGTCTGAC | 0.0417 |
| CTTACTTC | 0.151 |
| CGAAAGTA | 0.0596 |
| GGGCGCCA | -0.147 |
| CCACCCTA | 0.00159 |
| GACTCGGA | -0.231 |
